Test results published in PubChem BioAssay AID588453 (National Center for Advancing Translational Sciences (NCATS), 2011).
Several values for one entry are separate records, joined by “and”; a condition that tells them apart may be missing. Equal values may be shown once. About 4,000 (1%) of roughly 390,000 compounds were called active. Inconclusive results, whose numbers are uncertain, are shown with a selection of clear calls. Calls come from the whole dose curve; as a rule, active = well fitted inhibition curve with a large enough effect; inconclusive = small, poorly fitted or top-dose-only effect; inactive = no such curve, though single readings can be large or run the other way. Potencies of inconclusive entries are doubtful fits and often do not repeat.

What follows are compounds tested against Thioredoxin reductase 1, cytoplasmic (Rattus norvegicus) (UniProt O89049) (assay: qHTS Assay for Inhibitors of Mammalian Selenoprotein Thioredoxin Reductase 1 (TrxR1): qHTS). Details: recombinant rTrxR1, NADPH fluorescence consumption, selenite substrate; series mostly up to 114 µM; activity change, negative = inhibition: at the top concentration.
Source text: The selenoprotein thioredoxin reductase (TrxR; EC 1.8.1.9) is a FAD containing homodimeric pyridine nucleotide-disulfide oxidoreductase with many cellular roles. Together with NADPH and its prime substrate thioredoxin (Trx), the enzyme forms the core of the Trx system. The mammalian Trx system exerts a wide spectrum of functions including redox regulation, antioxidant defense, regulation of transcription factors as well as support of cell growth and replication. Many of these functions involve the reduction of Trx, which may subsequently reduce a number of different substrates including ribonucleotide reductase, peroxiredoxins or NFkB. Mammalian TrxR itself also has a broad substrate specificity, reducing both protein and non-protein substrates, including low molecular weight compounds such as dehydroascorbate, lipoic acid, ubiquinone, and juglone. In addition, several drugs in clinical use for anticancer treatment are indeed known to target TrxR1.
This BioAssay is a validation of an NADPH fluorescence-based, dual-purpose qHTS rTrxR1 assay designed to find potential inhibitors and substrates of rTrxR1. For this particular BioAssay, actives are potential inhibitors. See related BioAssay for substrate data deposition.
NIH Molecular Libraries Probe Production Network [MLPCN]
NIH Chemical Genomics Center [NCGC]
Assay Provider: Elias Arner, Karolinska Institute
Assay protocol: 2 uL of reagents (buffer in column 4 as negative control and 90 nM rTrxR1 in columns 1-3 and 5-48) were dispensed into Greiner black solid-bottom 1,536-well assay plates, followed by 1 uL of NADPH (400 uM final concentration) to each well. The plates were centrifuged at 1000 rpm for 15 seconds and subsequently incubated for 5 min at room temperature (~22 deg C) to allow for rTrxR1 reduction. Compounds (23 nL) were then transferred via Kalypsys pin tool equipped with 1536-pin array (10 nL slotted pins, V&P Scientific, San Diego, CA). In addition, a duplicate 2-fold serial dilution of the control compounds auranofin, a known gold-based TrxR1 inhibitor, and juglone (5-hydroxy-1,4-naphthoquinone), a natural TrxR1 substrate, were pin-transferred to columns 2 and 3, respectively. After incubation for 15 min at room temperature (~22 deg C), 1 uL of selenite (400 uM final concentration) were dispensed to each well. The plate was immediately transferred to a ViewLux high-throughput CCD imager (PerkinElmer), wherein kinetic measurements of NADPH fluorescence (Ex 340 nm, Em 450 nm) were acquired (8 minute kinetic read, see Table 1). Read 1 was utilized to assess the capacity of a compound to serve as an rTrxR1 substrate, i.e. a decrease in NADPH fluorescence compared to the no-compound background is an indication of a substrate behavior for that particular compound. For inhibitory activity of a compound, delta values, computed as the difference in fluorescence intensity between the first and last reads of an 8-minute time kinetic window, were used. All reagents were diluted in an assay buffer consisting of 50 mM Tris-HCl, pH 7.5, 2 mM EDTA, and 0.01% Tween-20.
Throughout the screen, reagent bottle and all liquid lines were made light-tight to minimize reagent degradation. All screening operations were performed on a fully integrated robotic system (Kalypsys, San Diego, CA) containing one RX-130 and two RX-90 anthropomorphic robotic arms (Staubli, Duncan, SC). Library plates were screened starting from the lowest and proceeding to the highest concentration, and a 'double-pinning' step of the highest concentration was required to access higher concentrations of compounds. Vehicle-only plates, with DMSO being pin-transferred to the columns 5-48, were inserted uniformly at the beginning and the end of each library in order to monitor and record any shifts in the background, which can be affected by reagent dispensers or loss in enzyme activity over time. […]
% is set by controls: 0 for no effect and ±100 for the full control effect; potency is the fitted concentration of half-maximal effect; tags give direction and shape of the fitted curve.
Note: nearly all actives have a fitted effect of over 65% in size.

Sequence of UniProt O89049 (O89049 whole entry, looked up): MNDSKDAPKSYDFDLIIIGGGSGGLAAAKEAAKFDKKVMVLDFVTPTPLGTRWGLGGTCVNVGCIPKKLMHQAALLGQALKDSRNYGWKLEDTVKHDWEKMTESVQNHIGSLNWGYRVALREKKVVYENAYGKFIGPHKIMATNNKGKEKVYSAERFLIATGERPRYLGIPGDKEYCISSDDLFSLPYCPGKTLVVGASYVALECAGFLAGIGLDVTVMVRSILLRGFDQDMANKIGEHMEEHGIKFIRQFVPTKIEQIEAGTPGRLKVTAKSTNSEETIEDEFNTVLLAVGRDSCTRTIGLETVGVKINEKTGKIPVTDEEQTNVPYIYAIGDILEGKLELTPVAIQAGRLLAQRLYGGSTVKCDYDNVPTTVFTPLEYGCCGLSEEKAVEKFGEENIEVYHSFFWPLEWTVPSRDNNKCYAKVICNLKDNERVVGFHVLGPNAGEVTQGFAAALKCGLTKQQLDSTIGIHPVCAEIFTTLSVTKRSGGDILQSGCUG

SMILES	Potency	activity change, negative = inhibition
Cc1cccc(C(=O)c2c(N)sc3c2CCCC3)c1	inconclusive: 50.1 µM [inhibitor, partial curve, poor fit]	
O=C(NC1CCS(=O)(=O)C1)/C(=C\c1ccco1)NC(=O)c1ccccc1 (configuration not stated)	inconclusive: 79.4 µM [inhibitor, partial curve]	
COc1ccc(OC)c(/C=N/NC(=O)CCc2ccc(O)c(O)c2)c1		inactive: 14.6%
CCN1CCN(C(c2ccccc2)c2c(O)cc(C)n(CCOC)c2=O)CC1 (configuration not stated)	inconclusive: 15.8 µM [inhibitor, partial curve, poor fit]	
C#CCOc1c(Br)cc(/C=C2/C(=O)ON=C2C)cc1OC	inconclusive: 44.7 µM [inhibitor, partial curve]	
CN(Cc1ccccc1)Cc1c(O)ccc2ccccc12		inactive: -43%
CCOC(=O)Cc1csc(-n2sc3ccccc3c2=O)n1		inactive: 42.7%
COc1cccc(C(=O)n2nc(-c3ccco3)nc2NCc2cccs2)c1		inactive: 10.2%
O=C(/C=C/c1ccc([N+](=O)[O-])s1)N1CCCC1	inconclusive: 70.8 µM [inhibitor, partial curve, poor fit]	
COc1ccc(C(=O)CCN(C)C)c2ccccc12	active: 0.398 µM	
CC(=O)Nc1ccc(NS(=O)(=O)c2ccc(C)cc2)cc1[N+](=O)[O-]		inactive: 15%
C[C@H]1CN([C@@H](C)CO)C(=O)c2cccc(NC(=O)C3CC3)c2O[C@H]1CN(C)Cc1ccncc1	inconclusive: 70.8 µM [inhibitor, partial curve]	
CC(C)(C)C1CCc2c(sc(NC(=O)c3ccncc3)c2C(=O)Nc2ccccc2Cl)C1 (configuration not stated)	inconclusive: 79.4 µM [inhibitor, partial curve]	
Cc1ccc(NCC(=O)N/N=C\c2ccc([N+](=O)[O-])o2)cc1	inconclusive: 12.6 µM [inhibitor, full curve]	
O=C1c2ccccc2NC(c2ccccc2)N1Cc1ccco1 (configuration not stated)	inconclusive: 56.2 µM [inhibitor, partial curve]	
COc1ccc(N2C(=O)C3CCCN3C2c2ccc(C)o2)cc1Cl (configuration not stated)	inconclusive: 12.6 µM [inhibitor, partial curve, poor fit]	
CSc1nnc(-c2sc3cc(C(F)(F)F)cnc3c2-c2ccccn2)n1C		inactive: 8.47% [at 57.1 µM]
COc1ccc(Cc2n[nH]c(=S)n2Cc2ccccc2)cc1Cl		inactive: 6.44% [at 57.1 µM]
COc1cc(C(=O)NNC2=CC(=O)CC(C)(C)C2)cc(OC)c1OC	inconclusive: 70.8 µM [inhibitor, single point]	
CNC(=O)c1cc2c(=O)n3cc(C)ccc3nc2n(C(C)C)c1=N	inconclusive: 63.1 µM [inhibitor, single point]	
CNC[C@H](O)c1ccc(O)c(O)c1	inconclusive: 3.98 µM [inhibitor, full curve, poor fit] and inconclusive: 16.8 µM [inhibitor, partial curve] and inconclusive: 21.2 µM [inhibitor, partial curve]	
CCCNc1cc(=S)nc(N)[nH]1	inconclusive: 15.8 µM [inhibitor, full curve]	
O=C(NCCc1ccccc1)/C(=C\c1ccc([N+](=O)[O-])cc1)NC(=O)c1ccco1	inconclusive: 70.8 µM [inhibitor, partial curve, poor fit]	

SMILES	Potency	activity change, negative = inhibition
COc1ccc(NC(=S)Nc2ccc3nsnc3c2)cc1	inconclusive: 17.8 µM [inhibitor, full curve, poor fit]	
O=C(NCc1ccco1)c1cc(Cl)nc(Cl)c1	inconclusive: 15.8 µM [inhibitor, full curve]	
COc1ccccc1N1CCN(C(=O)C2CC=CCC2C(=O)O)CC1 (configuration not stated)	inconclusive: 44.7 µM [inhibitor, partial curve]	
CN(C)C(=O)CN1CCN(C(=O)CCl)CC1	inconclusive: 50.1 µM [inhibitor, partial curve]	
C=C(C(=O)c1ccccc1)C(NC(C)(C)C)c1ccccc1 (configuration not stated)		inactive: 0.552% [at 11.4 µM]
Cc1nnc2sc(-c3ccc(N(C)C)cc3)nn2c1=O	inconclusive: 17.8 µM [inhibitor, partial curve, poor fit]	
Cc1ccc(-n2ncc(C(=O)NCC3CCN(C4CCCC4)C3)c2C2CCN(C(=O)OC(C)(C)C)CC2)cc1 (configuration not stated)	inconclusive: 70.8 µM [inhibitor, single point]	
O=C(O)CCc1ccc(-c2cccs2)n1CCc1ccccc1	inconclusive: 31.6 µM [inhibitor, full curve]	
Cn1c2ccc(F)cc2c2ncn(CCCN(CCO)CCO)c(=O)c21	inconclusive: 50.1 µM [inhibitor, partial curve]	
COc1ccc(-c2nnc(NC(=O)C3CCCO3)s2)cc1 (configuration not stated)	inconclusive: 89.1 µM [inhibitor, partial curve, poor fit]	
CCc1ccc(N(CC(=O)O)S(=O)(=O)c2c(C)noc2C)cc1		inactive: 22.1%
NS(=O)(=O)c1cccc(NC(=S)NCc2ccccc2)c1	inconclusive: 89.1 µM [inhibitor, partial curve, poor fit]	
Cc1ccc(-n2c(O)c(/C=N/Nc3ccc(S(=O)(=O)N4CCOCC4)cc3[N+](=O)[O-])c3ccccc3c2=O)c(C)c1	inconclusive: 70.8 µM [inhibitor, partial curve]	
Cc1c2c(nc3ccccc13)CCC(C(C)(C)C)C2 (configuration not stated)		inactive: -3.89% [at 57.1 µM]
C#CCOCCOCCOCCNc1nc(N2CCOCC2)nc(N2CCN(C(=O)[C@H](Cc3cc4ccccc4[nH]3)n3cc([C@@H](N)C(C)CC)nn3)CC2)n1 (some centres not stated)	inconclusive: 70.8 µM [inhibitor, partial curve, poor fit]	
S=c1[nH]nc(Cc2c[nH]c3ccccc23)o1	inconclusive: 25.1 µM [inhibitor, partial curve]	
O=C(Nc1ccc2nc(-c3ccco3)c(-c3ccco3)nc2c1)N1CCN(c2ccccn2)CC1	active: 1.41 µM	
CCn1cc(C(=O)NCc2ccccc2Cl)c(=O)c2cc(S(=O)(=O)N3CCCCC3)ccc21		inactive: 30.6%
CCCNC(=O)c1ccc(S(=O)(=O)c2ccc(OC)cc2)c([N+](=O)[O-])c1	inconclusive: 28.2 µM [inhibitor, single point]	
COc1cccc(CN(C)C(=O)c2cc(COc3c(F)cccc3F)on2)c1		inactive: 11.2%
COc1ccc(-c2cc(=O)n(-c3ccc([N+](=O)[O-])cc3)[nH]2)cc1	inconclusive: 39.8 µM [inhibitor, partial curve, poor fit]	
COc1ccc(-c2ccc3oc(-c4ccc(OC)cc4)c(C#CC4(O)CCCCC4)c3c2)cc1	inconclusive: 28.2 µM [inhibitor, full curve]	
Cc1ccccc1C(=O)NC(=S)NCCc1ccccc1	inconclusive: 15.8 µM [inhibitor, full curve]	

SMILES	Potency	activity change, negative = inhibition
Cc1nc2c(C#N)cnn2c2c1CCN2CC1CCCO1 (configuration not stated)	inconclusive: 44.7 µM [inhibitor, partial curve, poor fit]	
Brc1cccc(C2Nc3cccc4cccc(c34)N2)c1	active: 56.2 µM	
O=C(O)Cc1coc2ccc3ccccc3c12		inactive: -2.61%
CC(C)C(=O)Nc1cccc(NC(=S)NC(=O)c2ccccc2Cl)c1	inconclusive: 70.8 µM [inhibitor, single point]	
Cc1cc(C)cc(N2CN=c3s/c(=C\c4ccco4)c(=O)n3C2)c1	inconclusive: 89.1 µM [inhibitor, single point]	
CCOC(=O)CNC(=O)Cn1cnc2c(nnn2-c2ccc(C)cc2)c1=O	inconclusive: 56.2 µM [inhibitor, single point]	
CCN(C(=O)COC(=O)c1ccc(Cl)nc1)C1CCS(=O)(=O)C1 (configuration not stated)	inconclusive: 22.4 µM [inhibitor, partial curve, poor fit]	
N#Cc1cc(-c2ccccc2)nn1-c1ccccc1	inconclusive: 0.891 µM [inhibitor, full curve]	
COc1ccc2sc(-c3ccc(S(C)(=O)=O)cc3)c(C#CCO)c2c1	inconclusive: 39.8 µM [inhibitor, partial curve]	
O=C(/N=C1\NC(=O)C(F)(C(F)(F)F)S1)NC1CCCCC1 (configuration not stated)	active: 25.1 µM	
NS(=O)(=O)c1ccc(NC(=O)c2nc(S(=O)(=O)Cc3ccccc3F)ncc2Cl)cc1	active: 3.55 µM	
O=C(c1ccc([N+](=O)[O-])cc1)N(Cc1ccc(Br)cc1)N1C(=O)CCCC1=O		inactive: 18.3%
c1ccc2c(-c3nc(-c4ccncc4)no3)cccc2c1		inactive: 82.1%
COc1ccc(CC(=O)Nc2nc3ccccc3[nH]2)cc1		inactive: 19.1%
O=C(O)/C=C/C(=O)NCCNc1ncc(C(F)(F)F)cc1Cl	inconclusive: 56.2 µM [inhibitor, partial curve, poor fit]	
C=CCc1cccc2cc(C(=O)N3CCN(c4ccccn4)CC3)c(=O)oc12	inconclusive: 79.4 µM [inhibitor, partial curve, poor fit]	
CCN(CC)c1ccc(C=Nc2cc(C)cc(C)c2)c(O)c1		inactive: -7.59%
CC1C(=O)N2CCCc3cc(S(=O)(=O)N(C)Cc4ccccc4)cc1c32 (configuration not stated)	inconclusive: 39.8 µM [inhibitor, full curve]	
COc1ccc(N2CCN(C(=O)c3nc(-c4ccc(Cl)cc4)n4c3CCCCC4)CC2)cc1		inactive: 1.03%
CCOc1ccc(/C(O)=C2/C(=O)C(=O)N(c3nc(C)c(C)s3)C2c2ccco2)cc1 (configuration not stated)	inconclusive: 70.8 µM [inhibitor, partial curve]	
CN1CCN(CCCN2c3ccccc3Sc3ccc(C(F)(F)F)cc32)CC1	inconclusive: 15.8 µM [inhibitor, partial curve, poor fit]	
